The results in this text go back to ChEMBL document CHEMBL4888484, “Replenishing the malaria drug discovery pipeline: Screening and hit evaluation of the MMV Hit Generation Library 1 (HGL1) against asexual blood stage Plasmodium falciparum ,using a nano luciferase reporter read-out” (2022).

About 540 (0.36%) of roughly 150,000 compounds showed an effect of 50% or more. This is one part of the list.

The experiment relates to Plasmodium falciparum. The experiment can be described thus: Primary screen in NF54 nanoGlo assay, in single point, at 2uM, 72h; a lower Z score goes with more inhibition. The following applies: timepoint 72 hour. The format is functional, Erythrocyte.
As to `CC[C@H](O)CN(Cc1ccc(S(C)(=O)=O)cc1)c1ccccc1`, the % Inhibition (as a rule, the change of the read-out against control, counted positive when it falls) is 0% and the Z score amounted to 0.02.
With `O=C(CCc1ccccc1)Nc1ncn(Cc2ccccn2)n1`, the “% Inhibition” value came out at 2% and the Z score is given as -0.23.
The matching figures for `COCC(=O)N(C1CCOCC1)C1CCN(C(=O)c2ccccc2F)CC1`: -6% and 0.74.
Regarding `Cc1c(S(=O)(=O)NC2CCN(c3nccn3C)CC2)cnn1C`, the “% Inhibition” value was -7% and the Z score was determined as 0.94.
For `CC(C)(O)c1cn(C2CN(C(=O)c3ccc(Cl)cc3O)C2)nn1`, in that order: -3% and 0.51.
The matching figures for `CCOCCCN(CC(=O)N(Cc1cccn1Cc1ccc(Br)cc1)C1CCCCC1)C(=O)c1ccc(C)cc1`: -16% and 2.31.
For `CC(C)(C)NC(=O)N(Cc1nccn1Cc1c(F)cccc1Cl)C1CC1`, the “% Inhibition” value is 5% and the Z score was -0.58.
The matching figures for `CCC1CC(C(=O)N2CCc3[nH]ncc3C2)CCO1` (stereo not given): -12% and 2.17.
The matching figures for `Cc1nnc(N2CCC(COc3ccc(C4CC4)nn3)CC2)s1`: -11% and 1.25.
The matching figures for `CC(=O)c1ccc(CNc2nccc(C)n2)nc1C`: -8% and 0.93.
On to `CCN(C(=O)CCc1nc(-c2nn(-c3ccc(C)cc3)c(=O)n(C)c2=O)no1)c1cccc(Cl)c1`, for which the “% Inhibition” value is listed as 0% and the Z score is given as -0.07.
The matching figures for `Cc1cccc(-n2nc(-c3ccccc3)nc2CCn2ccc(=O)[nH]c2=O)c1`: -4% and 0.82.
The matching figures for `Cc1cc([C@H](C)NCc2nnc(C)o2)c(C)o1`: -3% and 0.32.
The matching figures for `CCC(=O)N1CCNc2ncc(C)cc21`: -4% and 0.4.
Consider `Cc1nnsc1C(=O)N[C@H]1CN(C2CCOCC2)C[C@@H]1C1CC1`, for which the “% Inhibition” value was -21% and the Z score is recorded as 4.18.
For `CC1=CC(c2cnc(-c3ccccc3)c(C)c2)CN(C(=O)c2ccccc2)C1c1ccccc1` (stereo not given), in that order: 1% and -0.16.
For `Cc1ccc(C(=O)Nc2cnns2)cn1`, in that order: 5% and -0.71.
The matching figures for `CC(C)c1nccn1CCC(=O)N1CCC2(CCCC2)CC1`: 7% and -1.03.
Take `CS(=O)(=O)c1ccc(CNC(=O)NC[C@H]2CCCC23CC3)s1`: the “% Inhibition” value is reported as -1% and the Z score is 0.12.
Turning to `O=S(=O)(c1cccc(F)c1)N1CCC[C@](CC2CC2)(c2noc(-c3cccnc3)n2)C1`, the “% Inhibition” value is given as 8% and the Z score was -1.
The matching figures for `C1=C(c2ccccc2)CCN(c2ncnc3c2CCNCC3)C1`: 19% and -2.53.
The matching figures for `Cc1cc(C)n(C[C@@H](O)CCc2ccccc2)n1`: 0% and -0.03.
For the compound `Cc1ccc(S(=O)(=O)N2CCO[C@@H](COc3ccccc3)C2)c(C)c1NS(C)(=O)=O`, the “% Inhibition” value amounted to 0% and the Z score came to 0.05.
The matching figures for `COc1ccc(CNCC[C@H](c2ccc(OC(C)C)cc2)C2CCCCC2)cc1OC(C)C`: 12% and -1.46.
The matching figures for `COc1cccc(C(=O)N2CCC[C@H](Oc3cccnn3)C2)c1OC`: 3% and -0.52.
As for `CN1C(=O)NCC12CCN(C(=O)c1ccnn1-c1ccccc1)CC2`, the “% Inhibition” value was -5% and the Z score is given as 1.01.
The matching figures for `CC(C)C/C=C(\CN1CC[C@H](N)[C@@H](O)C1)c1ccccc1`: 7% and -1.02.
The matching figures for `N#C[C@@]1(c2ccccc2)CCc2ncnc(N)c2C1`: -3% and 0.39.
For `Cc1ccc(CNC(=O)Cn2c(C)c(Cc3ccccc3)c(=O)n3nc(-c4ccccc4)nc23)cc1`, in that order: 13% and -1.68.
Turning to `O=C(NS(=O)(=O)Cc1cccnc1)C1CCC(F)(F)CC1`, the “% Inhibition” value is -5% and the Z score stood at 0.76.
The matching figures for `CCc1ncoc1C(=O)N[C@@H](C)c1ccc(F)c(Br)c1`: -5% and 0.65.
For `CCOc1ccccc1N1CCN(c2nnc(C)c(C)n2)CC1`, in that order: -6% and 1.33.
For `Cc1noc([C@H](C)NS(=O)(=O)c2ccnn2C(C)C)n1`, in that order: 0% and -0.07.
On to `Cc1ccc(-n2nnnc2N2CCC(C(=O)N3CCCC3)CC2)cc1`, for which the “% Inhibition” value came out at 6% and the Z score is -0.71.
As for `Cc1ncccc1CNC(=O)N[C@H]1COCC1(C)C`, the “% Inhibition” value is -9% and the Z score is reported as 1.64.
For `Cc1nn(C)c(C)c1C(=O)NS(=O)(=O)CCC1CCCC1`, in that order: 2% and -0.33.
As for `O=C(CCNC(=O)C1CCCC1)Nc1ccnn1C1CCCC1`, the “% Inhibition” value is given as 35% and the Z score is recorded as -3.93.
With `Cc1nnc(CN(Cc2cccc(Br)c2)CC2CC2)n1C`, the “% Inhibition” value is listed as -10% and the Z score is 1.13.
For the compound `Cc1ccccc1NCC(=O)Nc1ncc(Cc2cccc3ccccc23)s1`, the “% Inhibition” value came to 5% and the Z score is recorded as -0.69.
As for `Cc1c(C(=O)Nc2cccnc2-n2cccn2)oc2ccccc12`, the “% Inhibition” value was determined as 6% and the Z score is reported as -0.76.
For `CC(C)(C)OC(=O)NC1(c2noc(-c3ccccc3)n2)CCOCC1`, in that order: -1% and 0.18.
For `Cc1cccc2c1N(Cc1ccc(OCc3ccccc3)cc1)C(=O)C2=O`, in that order: -4% and 0.44.
For `O=C1CS(=O)(=O)[C@@H](c2ccc(F)cc2)N1c1cccc(F)c1`, in that order: -9% and 0.84.
Turning to `O=c1[nH]ccn2nc(C(F)(F)F)cc12`, the “% Inhibition” value is recorded as -3% and the Z score came to 0.54.
The matching figures for `Cc1ncc2ccc(C(=O)NC3CCN(C(=O)c4cc(Cl)c[nH]4)CC3)cn12`: -37% and 4.29.
The matching figures for `O=C(Nc1ccc(C(F)(F)F)cc1)C(=O)c1ccc[nH]1`: -4% and 0.34.
For `Cn1ccnc1[C@H](NC(=O)c1cccc(S(=O)(=O)N2CCOCC2)c1)c1ccc(Cl)cc1`, in that order: 3% and -0.47.
Take `Cc1ccc(NC(=O)NC[C@H]2CCCN2CC(F)F)c(C)n1`: the “% Inhibition” value is given as -5% and the Z score is listed as 0.9.
In the case of `CC(C)c1nnc(CNc2ccc(Cl)c(C(N)=O)c2)o1`, the “% Inhibition” value came out at 16% and the Z score is listed as -1.84.
The matching figures for `CC1CCN(C(=O)NCc2ccoc2)CC1C` (stereo not given): -14% and 2.61.
For `Cn1cc(C#N)cc1C(=O)N1CCCCCC1C1CCCCC1=O` (stereo not given), in that order: -7% and 1.29.
The matching figures for `COC(=O)N1CCC[C@H]1C(=O)NC1CCCCC1`: 1% and -0.13.
In the case of `CC(C)OC[C@@H](O)CN1CCn2c(cnc2C(F)(F)F)C1`, the “% Inhibition” value was -2% and the Z score is 0.23.
The matching figures for `COCCc1nnc(NC(=O)Cc2ccc(C)cc2C)o1`: -9% and 1.07.
As for `Fc1ccccc1Oc1cc(CNCc2ccsc2)ccn1`, the “% Inhibition” value came to 17% and the Z score is -2.75.
